# Source: the supplement of paper PMC11417369
# ± gives the standard deviation of the averaged measurements. This is one part of the list.
# Test system: PfAP2-LT AP2 domain (GST-tagged)
# Assay: gcPBM binding intensity (ln(normalized median fluorescence intensity)); higher = stronger DNA binding
# Outline: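 Binding intensity is the highest Masliner-normalised natural-log median intensity over replicate spots in either probe orientation. To obtain it, GST-tagged P. falciparum DNA-binding domains made in E. coli were incubated for 1 h on an Agilent 4 × 180k array of primer-extended double-stranded 36-bp intergenic genomic probes plus negative controls. Detection used Alexa488 anti-GST antibody with scanning at 488 nm.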
row,Sequence,gcPBM binding intensity (ln)
1,TTATTTTCTTTTTCTTGTACACACATAATATGGATG [XGTACX_site1481],9.17 ± 0.54
2,TATTCCAAAAATGTGTGTACATAAATACAATATTAT [XGTACX_site2653],9.04 ± 0.35
3,AAAAAGAAGAATAATACACACAAATTATTTTATATA [CACACA_site1919],8.89 ± 0.57
4,TATAATAAATGGACGGTGCGACATGACCATATGTGT [GTGCAC_site9476],9.13 ± 0.36
5,CTAAAAGAACATGTGTGTACTTATGTTCTCTTTTTT [XGTACX_site5983],8.85 ± 0.44
6,GACACCCATAAATATACACACGCACAACACAAAATA [CACACA_site8944],9.46 ± 0.38
7,CTTACCAAAAAACACACACACACAAAATATATAAAT [CACACA_site1870],10.1 ± 0.24
8,TTATTTTTTAGTAGTACACACTTTTTGTACCTTTTA [CACACA_site4503],8.93 ± 0.49
9,TGTAGATTTTGTAACACACACATATAAATACAGATA [CACACA_site5343],9.24 ± 0.34
10,TAAGGGATATGTATATGTACATACAAATATATATAA [XGTACX_site2892],8.83 ± 0.44
11,AAATGTAATAAATATACACACACAAATATATATATA [CACACA_site8754],9.58 ± 0.24
12,TTTGCTTCGATATATTCACACATTTTTTTTCTTATT [CACACA_site4499],8.91 ± 0.46
13,AATTTCATTTTTAGAAGTACATTTATATTAAAAATC [XGTACX_site2888],8.11 ± 0.39
14,TATATATATATATATATATATATATATATATATATT [CACACA_negctrl_site1440],9.45 ± 0.014
15,CATTGACCATTAATTTGTACACAAGGGGAAATGAGG [XGTACX_site1756],8.79 ± 0.43
16,TCTTTCTGCTCTTATACACACAAATAAAGATTTTTT [CACACA_site2700],8.79 ± 0.5
17,ATGAAATTTTCATATTGTACTATTAAAAATATATTT [XGTACX_site1989],8.35 ± 0.42
18,TATAATCCATAAGAAGCACACACATATATATATATT [CACACA_site8394],9.41 ± 0.3
19,AATAAATATTAAATGACAAAAAAAAAAAAAAAAGGG [XGTACX_negctrl_site15],8.76 ± 0.64
20,TTAAGATGCATAAATACATGCAAAGTAAATAATTCT [TGCATGCA_site517],8.97 ± 0.41
21,TTAGCAGGACGTTTGGTGCACGTACTGTTTTTCTTT [GTGCAC_site9856],8.81 ± 0.39
22,ATTATAAGAATTAAAAGAAACAAAATTTTAATTATA [CACACA_negctrl_site610],8.3 ± 0.46

row,Sequence,gcPBM binding intensity (ln)
1,TAGCCAAAAGGATATGCACACACACCCACATATATA [CACACA_site8684],9.71 ± 0.29
2,TAAGATCCTTAAAACGCATGCAGTATTTTTATTTCT [TGCATGCA_site532],8.73 ± 0.38
3,CATATAATTATTTTCACACATATAACTACATCTATA [CACACA_site5915],8.82 ± 0.43
4,ATATAAATAAAAAAAAGTACATAATATATAAAAATA [XGTACX_site3065],8.8 ± 0.59
5,CTTTTACGTTTAGGATGTACATTTAAAAAAAAAGAA [XGTACX_site8032],8.34 ± 0.48
6,AAAAAACTTTTAAGCACACACATAGATAATATAGAT [CACACA_site6835],9.27 ± 0.47
7,TTCCCTTTTGTAAAATGTACATATATATTTAAACAA [XGTACX_site3263],8.38 ± 0.41
8,TTTTTATTAAAATGTATTTTAGGAAAAAACAAAAAA [XGTACX_negctrl_site437],8.04 ± 0.52
9,TAAGTTCCCTTTGAATGTACATATAATGAAAAGAAA [XGTACX_site826],8.52 ± 0.42
10,AATATTAACAATCGCACACATATTATTTTTCCAAAA [CACACA_site4982],9.02 ± 0.45
11,TGAAATGGAAACAACTGTACAAAATAAATATGATAT [XGTACX_site1311],9.02 ± 0.51
12,ATATAAATATAGCATACACACAAAAAAATAAAATAA [CACACA_site2333],9.06 ± 0.54
13,CAACATTTGAAACACACACACATACAAACAAACAAA [CACACA_site3306],9.85 ± 0.47
14,TTTTTTTTTTTTGTCACACATATTTGTATTAATCAT [CACACA_site5235],8.79 ± 0.59
15,AAATGAAATAAATGTAGTACACATATACAATATATA [XGTACX_site6951],8.93 ± 0.45
16,TGTATATCATATATTTGTACTCAATTAATATAAACA [XGTACX_site3970],8.48 ± 0.35
17,TATTTTTATACAATTTAACACGGGTTATAAAATGTA [CACACA_negctrl_site566],8.49 ± 0.34
18,TATGGAAGAAAATATACACACAAAAAAAAAAAATGT [CACACA_site1486],9.24 ± 0.49
19,AATTTATTATTTGTATGTACTCATATGATTCACTTA [XGTACX_site2797],8.89 ± 0.44
20,ATACTTTTATTTTTGGTGCATATATCATGTAGACGT,8.96 ± 0.37
21,TATTAATTTTTAAACATAATTTTTCGTATAATATAT [CACACA_negctrl_site762],8.33 ± 0.37
22,GAGATAAAATAAAACACACACATATATTTATATAAC [CACACA_site7098],9.43 ± 0.43

row,Sequence,gcPBM binding intensity (ln)
1,TTTACTTTCTTATTTTCACACATTTAAAAAAAAATT [CACACA_site5949],8.36 ± 0.47
2,ACATCTAATTTGTATACACACAATAATAAATGGTGA [CACACA_site824],8.87 ± 0.4
3,TTGTATATATGACTTTTTTATATTTCAATTTTGTGC [CACACA_negctrl_site296],8.71 ± 0.49
4,TATATATATTTATAATGTACATATTTTTTTTTATTT [XGTACX_site4761],8.71 ± 0.49
5,AAAAAAAATTAGGAAACATGCATGTCCCGATAAATA [TGCATGCA_site149],8.89 ± 0.36
6,AGATATATTATTAGGTGTACTATAAAATAAATTCAC [XGTACX_site221],8.63 ± 0.38
7,CGAACAAACAAATAAACACACAAAAAAAGATATATA [CACACA_site6944],9.1 ± 0.57
8,AAAATCAAGTAGTATAAAGTAAGTATCATAAAAATA [CACACA_negctrl_site1554],8.79 ± 0.5
9,ATAATAAAATGGAGAGTGCATACATGTTTATTTTAT,8.9 ± 0.51
10,GTACACTAATTATGTGCACACAAATTAAAGGTCTAC [CACACA_site146],9.72 ± 0.3
11,TGTAGTTTGTCCCATGCATGTTCCATTAAAATATAT [TGCATGCA_site854],9.03 ± 0.35
12,CAATCAAAGAAACACACACACACCTAAACATAAAAG [CACACA_site2756],10.2 ± 0.33
13,TTAACGTAAAATATAGTGCATAGTATCATATTGATA [GTGCAC_site9527],8.82 ± 0.45
14,AATGTATATATGTAATGTACATATATAATGTATATA [XGTACX_site6510],8.99 ± 0.44
15,TATATAAACCCGTACACACACATATATGTATATATA [CACACA_site3507],9.5 ± 0.3
16,TTACTCATGAAAGATACACACATTCATTATATATAT [CACACA_site3252],8.96 ± 0.4
17,TACTTCTACAAGAGAAGTACAATATTTTTTATATTA [XGTACX_site8351],8.24 ± 0.43
18,AATAAAAATTTACTTTGTACACATATTAAATTCAAT [XGTACX_site1957],8.56 ± 0.46
19,AGACATAAGATAATTACACACAATACATCCCTATAT [CACACA_site2227],9.24 ± 0.38
20,AAATTTACAATACATTGTACATATTAATAATATTCC [XGTACX_site3646],8.69 ± 0.49
21,GTGTGTTGTATATACTGTACATACTTTATATATAGT [XGTACX_site1876],9.26 ± 0.46
22,TATAACAAGTAATGTTGTACATTGTATTATGTAATA [XGTACX_site6372],8.63 ± 0.46

row,Sequence,gcPBM binding intensity (ln)
1,AATGTAAAATATATGTGTACATATGTTTATATATAT [XGTACX_site2216],8.84 ± 0.41
2,AAATGTGTTTATTTAACACACAAAAGAAAAAATATA [CACACA_site6993],9.02 ± 0.54
3,CTGTTTTTGTTTTAAAGTACATTGTTCAATATACAT [XGTACX_site5288],8.82 ± 0.43
4,TGTTCTGAACGGTTCATGCACTTTTTTTTGTTAATT,8.85 ± 0.48
5,TTTATTTTCATATGAACACACATATATATATTATAA [CACACA_site2369],8.99 ± 0.44
6,TTATATACCCTAATATGTTTTATTATTATTATATAT [TGCATGCA_negctrl_site6],8.75 ± 0.55
7,TATATTCTACAAGAATTATGAATTGTCAGACCAAAT [CACACA_negctrl_site1101],8.46 ± 0.37
8,TACAATGTGGATAATTGTACAAAACCGATAAGAGGG [XGTACX_site6453],9.07 ± 0.4
9,ATATAAATAATATAAATACACACTAAAAAAAATATA [CACACA_site542],8.88 ± 0.44
10,AAGAAAAACTTTACGTGTACCAAACATCCTGCCGAC [XGTACX_site4895],8.94 ± 0.38
11,TAAACCTTAAAATATTTCTCATGTTTAACTTATATT [GTGCAC_negctrl_site233],8.55 ± 0.58
12,AAAAAATAATTGAAGTGTACGTACAATGATTTTACT [XGTACX_site7663],9.03 ± 0.35
13,GTATTCTACAGACACATACACACATATATATATATA [CACACA_site3427],9.57 ± 0.27
14,TTATAATATTGTGGTATACACACCTTACAAAAAGGT [CACACA_site2878],8.96 ± 0.46
15,GGGAGAAATTTATACATACACACATATATATATTAT [CACACA_site4039],9.18 ± 0.3
16,TTATAAAAAAAAAAAAAAAATATATATATATATATA [XGTACX_negctrl_site592],9.47 ± 0.44
17,AATAATATATATTGTACACACAAAATGGGAAAAAAA [CACACA_site5100],9.1 ± 0.33
18,AAAAAATAATAATAAAATGAATAGATATGTATTTAT [TGCATGCA_negctrl_site210],8.63 ± 0.52
19,AGCAGAGTTACAATTTGTACGTAATTGATATAGATA [XGTACX_site4051],8.86 ± 0.42
20,AACATATTATCTTGTGAAAATAATATAAGTCACATT [TGCATGCA_negctrl_site339],8.97 ± 0.38
21,ATATATATATATATTTGTACAGAAAATATTTTAATA [XGTACX_site3706],8.73 ± 0.37
22,ACAAAATGTAAATAAACACACATATATATATATATA [CACACA_site1281],9.88 ± 0.014
